Among all 100,000 compounds or so, about 250 (0.25%) were called active. The inconclusive results got no clear call from the source; some entries with a clear call stand among them for comparison. Calls come from the whole dose curve; as a rule, active = well fitted inhibition curve with a large enough effect; inconclusive = small, poorly fitted or top-dose-only effect; inactive = flat fitted curve, though single readings scatter. No potency is given beside an inconclusive call; the fits are too rough.
What follows are molecules tested against Alanine aminotransferase 2 (Homo sapiens) (UniProt Q8TD30) (assay: Primary qHTS assay for inhibitors of Glutamate pyruvate transaminase 2 (GPT2)). Settings: Recombinant GPT2, coupled pyruvate oxidase/HRP Amplex Red fluorescence; series mostly up to 57.7 µM.
Chain of UniProt Q8TD30 (Q8TD30 whole entry, looked up): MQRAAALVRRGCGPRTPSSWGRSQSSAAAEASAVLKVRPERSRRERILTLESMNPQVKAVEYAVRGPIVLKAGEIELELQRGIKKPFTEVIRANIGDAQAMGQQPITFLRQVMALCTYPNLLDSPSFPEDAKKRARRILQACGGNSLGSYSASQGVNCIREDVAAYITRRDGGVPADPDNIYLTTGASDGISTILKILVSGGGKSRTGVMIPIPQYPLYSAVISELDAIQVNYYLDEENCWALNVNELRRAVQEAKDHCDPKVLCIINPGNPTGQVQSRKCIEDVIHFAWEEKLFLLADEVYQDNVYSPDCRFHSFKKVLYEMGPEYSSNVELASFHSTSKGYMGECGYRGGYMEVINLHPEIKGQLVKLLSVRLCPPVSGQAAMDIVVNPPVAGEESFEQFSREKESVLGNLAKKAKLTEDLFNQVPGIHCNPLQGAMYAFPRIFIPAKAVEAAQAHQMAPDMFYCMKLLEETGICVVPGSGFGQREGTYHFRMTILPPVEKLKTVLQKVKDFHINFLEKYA
Method in brief: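 GPT2 10ng/uL, a-KG 250uM, L-Ala 2mM, HEPES pH7.5 + 0.0001% Tween; 30 min RT. Then Amplex mix (PO/HRP/ThPP), 30 min RT dark, fluorescence. AOA 50uM used as positive control.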
For `CN1CC[C@@]2(C)c3cc(O)ccc3N(C)C12` (some centres not stated), the Potency was inconclusive [inhibitor, partial curve, poor fit]. In the case of `CCN1C[C@]2(OC(=O)c3ccccc3NC(C)=O)CC[C@H](OC)[C@@]34[C@@H]2C[C@@H]([C@@H]13)[C@@]1(O)C[C@H](OC)[C@H]2C[C@@H]4[C@]1(O)[C@H]2OC`, the Potency is reported as inconclusive [inhibitor, full curve, poor fit]. With `COCc1nc(C2CC(N)C2)cc(N2CCCN3CCC[C@H]3C2)n1` (some centres not stated) the Potency was inconclusive [inhibitor, full curve, poor fit]. In the case of `O=C(c1cccs1)N1[C@H]2CC[C@@H]1c1cnc(-c3ccccc3)nc1C2`, the Potency is reported as “inactive”. With `ClC1=C(Cl)[C@]2(Cl)[C@@H]3[C@@H]4C[C@@H]([C@H]5O[C@@H]45)[C@@H]3[C@@]1(Cl)C2(Cl)Cl` the Potency was inconclusive [inhibitor, single point]. In the case of `CN1C(=O)[C@@H]2C[C@@H](O)CN2C2(CN(Cc3cccnc3)C2)C1=O`, the Potency is reported as “inactive”. With `C#CC(O)(C=CCl)CC` (configuration not stated) the Potency was inconclusive [inhibitor, single point]. With `COc1cc2c(cc1Oc1ccccc1)NC(=O)C21CCN(C(=O)c2cccnc2)CC1` the Potency was “inactive”. With `O=C(NC[C@H]1C[C@@H]2CCN1C[C@@H]2CN1CCN(c2ccc(F)cc2)CC1)c1ccco1` the Potency was “inactive”. For `Cc1cccc(NC(=O)NC2N=C(c3ccccc3)c3ccccc3N(CC(=O)c3ccccc3C)C2=O)c1` (configuration not stated), the Potency was “inactive”. `CC1=CC2/C=C(\C)CCC(O)C(O)C(O)CC(=O)C23C(=O)NC(CC(C)C)C3C1C` (configuration not stated) was tested, and the Potency was inconclusive [inhibitor, single point]. For `COc1cccc2c1C(=O)c1c(O)c3c(c(O)c1C2=O)C[C@@](O)(C(=O)CO)CC3OC1CC(N2CCOC(OC)C2)C(O)C(C)O1` (some centres not stated), the Potency was inconclusive [inhibitor, single point]. `CC[C@H]1CN2CC[C@H]1C[C@@H]2COC(=O)Nc1cc(OC)cc(OC)c1` was tested, and the Potency was “inactive”. For `COc1ccc(Cc2nccc3cc(OC)c(OC)cc23)cc1OC`, the Potency was inconclusive [inhibitor, single point]. With `C=C[C@H]1CN2CC[C@H]1C[C@@H]2CNCc1ccc(OC(F)(F)F)cc1` the Potency was “inactive”. `CNCCc1c[nH]c2ccc(O)cc12` was tested, and the Potency was inconclusive [inhibitor, full curve, poor fit]. `COc1ccc([C@@H]2CN(C(=O)c3sccc3C)[C@@H]3C4CCN(CC4)[C@@H]32)cc1` was tested, and the Potency was inconclusive [inhibitor, partial curve, poor fit].
Note: nearly all actives have a fitted effect of over 60% in size.
Potency is the fitted concentration of half-maximal effect; tags give direction and shape of the fitted curve.
